The other results are listed elsewhere or left out.

This assay has as its target T1, OsWOX13 (Oryza sativa, UniProt Q5QMM3 1-267).
T1 sequence: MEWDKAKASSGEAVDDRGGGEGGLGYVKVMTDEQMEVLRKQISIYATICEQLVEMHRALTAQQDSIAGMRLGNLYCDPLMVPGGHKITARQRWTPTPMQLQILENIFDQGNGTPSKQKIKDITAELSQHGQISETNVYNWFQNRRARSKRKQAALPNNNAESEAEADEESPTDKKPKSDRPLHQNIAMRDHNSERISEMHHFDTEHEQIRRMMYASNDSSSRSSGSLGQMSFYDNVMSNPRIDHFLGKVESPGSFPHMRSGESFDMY
The experiment in a line: protein-binding microarray (RPBM); PBS, 2% BSA, 51.3 ng/ul salmon testes DNA, 50 uM zinc acetate, 200 nM TF, 25 C, 1 h; high values mean tight binding. Particulars: protein: recombinant; tags: N-terminal polyhistidine and DsRed monomer fusion (pET32a); label: CyDye5-dUTP incorporated in the synthesized complementary strand; 3' TTTTT single-stranded linker to array surface; dsDNA, one strand shown. In outline:
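Transcription factors were each fused at the N-terminus to a polyhistidine tag plus DsRed and expressed in E. coli BL21-CodonPlus before Ni–NTA purification. Binding to a double-stranded custom Agilent array was carried out with 200 nM protein at 25 °C for 1 h in PBS, 2% BSA, salmon testes DNA and 50 µM zinc acetate. The binding signal is per-feature fluorescence intensity, in arbitrary units, on an Axon 4000B scanner.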
On to “TTGACAGAACATGCATCAAGTCACCACCAACAACATTTGCCGGAGTCACCTAGTGCAG”, for which the binding signal is 3660 fluorescence intensity (a.u.).
On to “CAGATTAAAGATTTGAACTGAACTGAACTGAACTGACACTCGGAGTCACCTAGTGCAG”, for which the binding signal is 3790 fluorescence intensity (a.u.).
Consider “GTAGGCTGATTTATAATAATTTATGTGTATTGCGCTATAGCGGAGTCACCTAGTGCAG”, for which the binding signal was 39400 fluorescence intensity (a.u.).
To “ATGAATGAATTACATATCATTATGTATCGTCGCACCCTGTCGGAGTCACCTAGTGCAG” belongs 6700 fluorescence intensity (a.u.).
Regarding “CGTGATGACTGCTACGAGCATGAATTAATGCTTCTAGTTACGGAGTCACCTAGTGCAG”, the binding signal is 8600 fluorescence intensity (a.u.).
To “TCAATGAACTATTAGATTGGCTATAAATAAATTGGAGCTACGGAGTCACCTAGTGCAG” belongs 21300 fluorescence intensity (a.u.).
To “GTTAATGAATCTAGACATATACATCTATCTAGATTCATTACGGAGTCACCTAGTGCAG” belongs 5660 fluorescence intensity (a.u.); to “TTACACTACTTAATTTGTTTAATTTAATTAACTCAACGCCCGGAGTCACCTAGTGCAG”, 19000 fluorescence intensity (a.u.); to “GGGCCAAATTTTATCGAGAAGATTAGACACGAGTATGGGCCGGAGTCACCTAGTGCAG”, 3490 fluorescence intensity (a.u.).
“GTATCAATTAGTATCTGAAGAGGTGGGCATCGTATTTCCTCGGAGTCACCTAGTGCAG”: the binding signal is 13000 fluorescence intensity (a.u.).
Turning to “TTCGAGTAATTAATTAAGCTCCGACCACGAAGCTTCTGGCCGGAGTCACCTAGTGCAG”, the binding signal was 26000 fluorescence intensity (a.u.).
For “GTTTTCTAATGATGGCACTAATTTCTTTCTTCTACTAACTCGGAGTCACCTAGTGCAG”, the binding signal was 5420 fluorescence intensity (a.u.).
With “ATTAATAGGACAGATCACAAAATTGTTCATTGGAAAACTTCGGAGTCACCTAGTGCAG”, the binding signal was 6160 fluorescence intensity (a.u.).
Take “TGTAACTGGTAACATGCATGTACACATCCAGGCTTGCATGCGGAGTCACCTAGTGCAG”: the binding signal is 6030 fluorescence intensity (a.u.).
With “CTAGTAGTTTATTTATTGACAAGATTGCCACGTAACCGAACGGAGTCACCTAGTGCAG”, the binding signal was 12200 fluorescence intensity (a.u.).
To “TAGATTGATCGGACTAACCACCCCATTTTACACCATTTGCCGGAGTCACCTAGTGCAG” belongs 20900 fluorescence intensity (a.u.).
“GTGTGATTACAAAGCCACACGATATTTGTGAGTCGCCGCGCGGAGTCACCTAGTGCAG”: the binding signal is 9670 fluorescence intensity (a.u.).
Turning to “AATGTGATAACAGAGAAATTACTTGATGAGGCAAGTTAATCGGAGTCACCTAGTGCAG”, the binding signal is 9130 fluorescence intensity (a.u.).
“GATTCATTTAACAATTATATGAATGTGGGAAATGCTAGAACGGAGTCACCTAGTGCAG”: the binding signal is 3910 fluorescence intensity (a.u.).
For the sequence “TCGATTGACTGCATCTTTTCCTGAAAGTGAACATGCAGTGCGGAGTCACCTAGTGCAG”, the binding signal was 32500 fluorescence intensity (a.u.).
As to “TTATGTAATTAGCTTACTGTAGCCATCAGGTTTTGTCACTCGGAGTCACCTAGTGCAG”, the binding signal is 13300 fluorescence intensity (a.u.).
To “TTTTATTTCTTGTTGATTACAGGATCAAATCAACTGGCACCGGAGTCACCTAGTGCAG” belongs 5660 fluorescence intensity (a.u.).
The same measure for “GACCTAATTATCGATCGATCGATCGAGCTGACCCGGAAATCGGAGTCACCTAGTGCAG”: 10500 fluorescence intensity (a.u.); for “ACTAATTAGTTGGCGGGTAACCATTCCAAATCAACACATTCGGAGTCACCTAGTGCAG”: 43000 fluorescence intensity (a.u.).
The same measure for “ACTGATAACATATATAACAGAGGAATACATTTTGCTCAGTCGGAGTCACCTAGTGCAG”: 6660 fluorescence intensity (a.u.); for “TTATAATTAAGTAGAGTAGGAGGAAGGATTAAGGAAGGAGCGGAGTCACCTAGTGCAG”: 3370 fluorescence intensity (a.u.).
For “GGACATCATGATTAGCATGTTATGAGGGATCACTATACTTCGGAGTCACCTAGTGCAG”, the binding signal was 24400 fluorescence intensity (a.u.).
With “CTTGATGGGATGGGATCTCACTCTGCTTTAATCGCACTCGCGGAGTCACCTAGTGCAG”, the binding signal is 18900 fluorescence intensity (a.u.).
In the case of “CAATTGAAATTACTAACTGAAGTTCATTCCAATCCAATTGCGGAGTCACCTAGTGCAG”, the binding signal is 4940 fluorescence intensity (a.u.).
To “GCTGACTTTGCATTTATTTAGATTTAAAATTGCAAGCTTGCGGAGTCACCTAGTGCAG” belongs 6250 fluorescence intensity (a.u.).
Regarding “ATAATTATCATTTCATTCGTATTATCGATGCATGTGAGGACGGAGTCACCTAGTGCAG”, the binding signal is 9310 fluorescence intensity (a.u.).
“TCCCAATCACCAACTGCCCAGCTCCATTCCTCACCCAACACGGAGTCACCTAGTGCAG”: the binding signal is 10600 fluorescence intensity (a.u.).
For “AGCATGATTTCCAGTTAGAGTTACCAAAATTTGGCTTAAACGGAGTCACCTAGTGCAG”, the binding signal is 12800 fluorescence intensity (a.u.).
As to “ACTTGATGGAATAATTTAAAAGAAAGTGTCAGCATTTTAACGGAGTCACCTAGTGCAG”, the binding signal was 9540 fluorescence intensity (a.u.).
Turning to “CTACCAAATTGATGGTCCCAAATGTTCCTCCGTTTCCATGCGGAGTCACCTAGTGCAG”, the binding signal was 25700 fluorescence intensity (a.u.).
With “CAAGTCACCCAATCATCATCATCAAACGCCAACCAACAGCCGGAGTCACCTAGTGCAG”, the binding signal was 5950 fluorescence intensity (a.u.).
To “CTACACGCATAATTAATTGAGCTTTAACTATTACTCCCTTCGGAGTCACCTAGTGCAG” belongs 12100 fluorescence intensity (a.u.); to “AATGACAGCTGTACTGTGATCCTTATTTTGACTATTCTTGCGGAGTCACCTAGTGCAG”, 4870 fluorescence intensity (a.u.); to “ATTCAATTTATGTCTCTCGAAAATAGATATGAACATACTTCGGAGTCACCTAGTGCAG”, 3690 fluorescence intensity (a.u.).
For the sequence “TTTGATGTGACATGATGTAAAGTTTTGGGATGGGATCTAACGGAGTCACCTAGTGCAG”, the binding signal is 18000 fluorescence intensity (a.u.).
On to “CCTGTCATTATCTCTTGTGTTAATTTTAATATTTTGGATGCGGAGTCACCTAGTGCAG”, for which the binding signal is 4560 fluorescence intensity (a.u.).
To “TAAATTAGCAGGTAATTCTAGCTTACTTATAAGCGGATTCCGGAGTCACCTAGTGCAG” belongs 5330 fluorescence intensity (a.u.).

Values taken from publication PMC7819943, “Rice protein-binding microarrays: a tool to detect cis-acting elements near promoter regions in rice”.
